Article PMC11208152, “Dynamic Arabidopsis P5CS filament facilitates substrate channelling” (Nature Plants, 2024)
Results are given in words; binding and its absence hold for the method and conditions named. Some entries that bind do so weakly or less than the wild type. Blank lines part the entries; values can stand above or below the binder they belong to.

What was measured:
[1] = molecular target: Arabidopsis thaliana delta-1-pyrroline-5-carboxylate synthase 1 (AtP5CS1) (Arabidopsis thaliana) (UniProt P54887); assay: condition: only APO state (ligand-free); protein about 2-4 μM; negative-staining EM; APO (ligand-free) state, 20 mM Tris-HCl, 150 mM NaCl, 10 mM MgCl2, pH 8.0; purified protein about 2-4 μM; step looked for: oligomers (tetramers) into filaments; both purified
[2] = molecular target: AtP5CS2-GK, truncated AtP5CS2 consisting of residues 1-290 (glutamate kinase domain) (Arabidopsis thaliana) (UniProt P54888); assay: negative-staining EM; APO (ligand-free) state, 20 mM Tris-HCl, 150 mM NaCl, 10 mM MgCl2, pH 8.0; purified protein about 2-4 μM; step looked for: oligomers (tetramers) into filaments; both purified
[3] = molecular target: Arabidopsis thaliana delta-1-pyrroline-5-carboxylate synthase 2 (AtP5CS2), wild type (Arabidopsis thaliana) (UniProt P54888); assay: condition: only APO state (ligand-free); protein about 2-4 μM; negative-staining EM; APO (ligand-free) state, 20 mM Tris-HCl, 150 mM NaCl, 10 mM MgCl2, pH 8.0; purified protein about 2-4 μM; step looked for: oligomers (tetramers) into filaments; both purified
[4] = molecular target: AtP5CS2-F80A mutant (Arabidopsis thaliana) (UniProt P54888); assay: as above
[5] = molecular target: AtP5CS2-F80A mutant (Arabidopsis thaliana) (UniProt P54888); assay: negative-staining EM; purified protein about 2-4 μM incubated at 25 °C with substrates (ATP, glutamate, both, or all substrates = mixed state) at the concentrations of the activity assay; step seen: oligomers (tetramers) into filaments; both purified

- binding [2]: binds weakly
B2: AtP5CS2-GK, truncated AtP5CS2 consisting of residues 1-290 (glutamate kinase domain) (domain or fragment, Arabidopsis thaliana, UniProt P54888 1-290, looked up)
chain: MTEIDRSRAFAKDVKRIVVKVGTAVVTGKGGRLALGRLGAICEQLAELNSDGFEVILVSSGAVGLGRQRLRYRQLVNSSFADLQKPQMELDGKACAGVGQSSLMAYYETMFDQLDVTVAQMLVTDSSFRDKDFRKQLSETVKAMLRMRVIPVFNENDAISTRRAPYKDSTGIFWDNDSLAALLSLELKADLLILLSDVEGLYTGPPSDSTSKLIHTFIKEKHQDEITFGEKSKLGRGGMTAKVKAAVNAAYGGVPVIITSGYAAENISKVLRGLRVGTLFHQDAHLWAPV
notes: Delta-1-pyrroline-5-carboxylate synthase 2 (P5CS2) of Arabidopsis thaliana, residues 1-290, the glutamate kinase (GK) domain; probably made as His6-SUMO fusion in E. coli and cleaved with ULP1 like the full-length AtP5CS2 (surmised); also called AtP5CS2 GK domain

- binding [3]: no binding
B3: Arabidopsis thaliana delta-1-pyrroline-5-carboxylate synthase 2 (AtP5CS2), wild type (enzyme, UniProt P54888 1-726, looked up)
chain: MTEIDRSRAFAKDVKRIVVKVGTAVVTGKGGRLALGRLGAICEQLAELNSDGFEVILVSSGAVGLGRQRLRYRQLVNSSFADLQKPQMELDGKACAGVGQSSLMAYYETMFDQLDVTVAQMLVTDSSFRDKDFRKQLSETVKAMLRMRVIPVFNENDAISTRRAPYKDSTGIFWDNDSLAALLSLELKADLLILLSDVEGLYTGPPSDSTSKLIHTFIKEKHQDEITFGEKSKLGRGGMTAKVKAAVNAAYGGVPVIITSGYAAENISKVLRGLRVGTLFHQDAHLWAPVVDTTSRDMAVAARESSRKLQALSSEDRKQILHDIANALEVNEKTIKAENDLDVAAAQEAGYEESLVARLVMKPGKISSLAASVRQLAEMEDPIGRVLKKTQVADDLILEKTSSPIGVLLIVFESRPDALVQIASLAIRSGNGLLLKGGKEARRSNAILHKVITDAIPETVGGKLIGLVTSREEIPDLLKLDDVIDLVIPRGSNKLVSQIKNSTKIPVLGHADGICHVYVDKSGKLDMAKRIVSDAKLDYPAACNAMETLLVHKDLEQNGFLDDLIYVLQTKGVTLYGGPRASAKLNIPETKSFHHEYSSKACTVEIVEDVYGAIDHIHQHGSAHTDCIVTEDSEVAEIFLRQVDSAAVFHNASTRFSDGFRFGLGAEVGISTSRIHARGPVGVEGLLTTRWIMRGKGQVVDGDNGIVYTHKDLPVLQRTEAVENGI
notes: Delta-1-pyrroline-5-carboxylate synthase 2 (P5CS2) of Arabidopsis thaliana; In the filament the helical unit is a tetramer (GK tetramer core, two GPR dimers); Only the GK tetramer was modelled at high resolution; also called AtP5CS2-WT; WT AtP5CS2; source: E. coli Rosetta (DE3), purified (Ni-NTA, SUMO-tag removed with yeast ULP1, Superose 6 Increase SEC); not shown: His6, N-terminal, cleaved; …

More lines, now with the values behind:

B1: Arabidopsis thaliana delta-1-pyrroline-5-carboxylate synthase 1 (AtP5CS1) (enzyme, UniProt P54887 1-717, looked up)
chain: MEELDRSRAFARDVKRIVVKVGTAVVTGKGGRLALGRLGALCEQLAELNSDGFEVILVSSGAVGLGRQRLRYRQLVNSSFADLQKPQTELDGKACAGVGQSSLMAYYETMFDQLDVTAAQLLVNDSSFRDKDFRKQLNETVKSMLDLRVIPIFNENDAISTRRAPYQDSSGIFWDNDSLAALLALELKADLLILLSDVEGLYTGPPSDPNSKLIHTFVKEKHQDEITFGDKSRLGRGGMTAKVKAAVNAAYAGIPVIITSGYSAENIDKVLRGLRVGTLFHQDARLWAPITDSNARDMAVAARESSRKLQALSSEDRKKILLDIADALEANVTTIKAENELDVASAQEAGLEESMVARLVMTPGKISSLAASVRKLADMEDPIGRVLKKTEVADGLVLEKTSSPLGVLLIVFESRPDALVQIASLAIRSGNGLLLKGGKEARRSNAILHKVITDAIPETVGGKLIGLVTSREEIPDLLKLDDVIDLVIPRGSNKLVTQIKNTTKIPVLGHADGICHVYVDKACDTDMAKRIVSDAKLDYPAACNAMETLLVHKDLEQNAVLNELIFALQSNGVTLYGGPRASKILNIPEARSFNHEYCAKACTVEVVEDVYGAIDHIHRHGSAHTDCIVTEDHEVAELFLRQVDSAAVFHNASTRFSDGFRFGLGAEVGVSTGRIHARGPVGVEGLLTTRWIMRGKGQVVDGDNGIVYTHQDIPIQA
notes: Delta-1-pyrroline-5-carboxylate synthase 1 (P5CS1) of Arabidopsis thaliana; also called His6-AtP5CS1; not shown: His6, N-terminal, kept
- binding [1]: no binding

B4: AtP5CS2-F80A mutant (enzyme, UniProt P54888 1-726)
chain: MTEIDRSRAFAKDVKRIVVKVGTAVVTGKGGRLALGRLGAICEQLAELNSDGFEVILVSSGAVGLGRQRLRYRQLVNSSAADLQKPQMELDGKACAGVGQSSLMAYYETMFDQLDVTVAQMLVTDSSFRDKDFRKQLSETVKAMLRMRVIPVFNENDAISTRRAPYKDSTGIFWDNDSLAALLSLELKADLLILLSDVEGLYTGPPSDSTSKLIHTFIKEKHQDEITFGEKSKLGRGGMTAKVKAAVNAAYGGVPVIITSGYAAENISKVLRGLRVGTLFHQDAHLWAPVVDTTSRDMAVAARESSRKLQALSSEDRKQILHDIANALEVNEKTIKAENDLDVAAAQEAGYEESLVARLVMKPGKISSLAASVRQLAEMEDPIGRVLKKTQVADDLILEKTSSPIGVLLIVFESRPDALVQIASLAIRSGNGLLLKGGKEARRSNAILHKVITDAIPETVGGKLIGLVTSREEIPDLLKLDDVIDLVIPRGSNKLVSQIKNSTKIPVLGHADGICHVYVDKSGKLDMAKRIVSDAKLDYPAACNAMETLLVHKDLEQNGFLDDLIYVLQTKGVTLYGGPRASAKLNIPETKSFHHEYSSKACTVEIVEDVYGAIDHIHQHGSAHTDCIVTEDSEVAEIFLRQVDSAAVFHNASTRFSDGFRFGLGAEVGISTSRIHARGPVGVEGLLTTRWIMRGKGQVVDGDNGIVYTHKDLPVLQRTEAVENGI
- binding [4]: no binding
- binding [5]: no binding (tested: about 2-4 μM protein, all substrates)
